# Whole data set: some 33,000 sequences, median “E-score (-0.5 to 0.5)” near -0.036, cut for the highest 2% near 0.37. The list shows a part of the results.
# Target: T1, Yer064c (UniProt P40041)
# T1 sequence: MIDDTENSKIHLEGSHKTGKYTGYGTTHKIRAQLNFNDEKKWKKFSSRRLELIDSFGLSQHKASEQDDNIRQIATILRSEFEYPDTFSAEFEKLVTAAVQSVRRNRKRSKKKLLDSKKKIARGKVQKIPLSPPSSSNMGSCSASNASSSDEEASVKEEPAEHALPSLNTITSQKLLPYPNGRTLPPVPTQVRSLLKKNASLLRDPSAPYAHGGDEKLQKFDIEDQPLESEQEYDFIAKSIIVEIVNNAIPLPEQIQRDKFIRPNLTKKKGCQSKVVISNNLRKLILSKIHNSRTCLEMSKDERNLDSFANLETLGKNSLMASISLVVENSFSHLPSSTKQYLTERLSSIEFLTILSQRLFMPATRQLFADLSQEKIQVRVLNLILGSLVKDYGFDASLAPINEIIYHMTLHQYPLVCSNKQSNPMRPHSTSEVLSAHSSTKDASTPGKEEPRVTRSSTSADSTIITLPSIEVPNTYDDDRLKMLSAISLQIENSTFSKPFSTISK
# Experiment: PBM E-score (8-mer binding enrichment) (E-score (-0.5 to 0.5)); higher = stronger / more preferred TF binding; most listed sequences are background and not binding sites
# Settings: protein concentration: 200 nM; construct: GST-full length
# Procedure: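 Universal 'all 10-mer' protein binding microarrays (Agilent AMADID 015681) probed with GST-tagged S. cerevisiae TFs (full-length or DBD) made by in vitro transcription/translation (PURExpress), about 100-200 nM. Bound TF was detected with fluorescent anti-GST. Each ungapped 8-mer (which stands for itself and its reverse complement) is scored by the PBM enrichment score (E-score), a modified Wilcoxon-Mann-Whitney statistic from -0.5 to +0.5, computed with the Universal PBM Analysis Suite. Scale: above 0.35 generally sequence-specific binding.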
row,Sequence,PBM E-score
1,GGGTACAC,-0.038
2,GCGCGTGA,-0.00868
3,AAAACCAC,-0.108
4,GACGCTTA,-0.0504
5,CTCCATAC,-0.0362
6,ACACTAGG,0.121
7,GAAGCTCC,-0.303
8,CATACAGC,-0.193
9,CCCAAGCA,-0.123
10,GCTCCAGC,-0.283
11,GGGAGCAA,-0.0695
12,AGTCGTAA,0.378
13,GCCACGGC,-0.283
14,GCCGGAAA,-0.0684
15,CCCGTATC,-0.298
16,CTAAGGAG,-0.0683
17,TAGTCACA,0.478
18,GGTTGCAC,0.0309
19,GAGCCTCA,-0.141
20,GAATCTAA,0.0549
21,AGCCACTG,0.202
22,CATCCTAC,0.00501
23,AAAGGAAT,0.00897
24,GATAGGGC,-0.227
25,GCGATTTA,-0.11

row,Sequence,PBM E-score
1,AGCTGGCC,-0.208
2,CCCCCGAA,-0.0804
3,CTGGTTGC,-0.0671
4,GGTGGTTA,0.105
5,CAGTAGAC,0.0603
6,GAATTAAC,0.0654
7,AACACAGA,0.189
8,CACGGCGC,0.0195
9,ACGGCTAT,-0.24
10,AAAATTGG,-0.165
11,GGGCTCGA,-0.181
12,CCGTTGTC,-0.0952
13,AAAGTCGA,0.00478
14,GAGCACGC,-0.163
15,ACCGTCTA,-0.148
16,AATCATAC,0.451
17,AACACGCT,-0.129
18,CTGTGTCC,-0.0309
19,CTTTTCTC,0.0732
20,ACTCTAGC,0.109
21,AAGATCAG,0.109
22,ACTCGGTA,0.142
23,TAGCCCTA,-0.205
24,CCTATTCG,-0.157
25,CGCGCAGC,-0.0144

row,Sequence,PBM E-score
1,CTCTGATA,0.162
2,CAAGTCTA,-0.0232
3,TAGGGCGA,0.0759
4,CCTGGTCC,-0.35
5,TAATGAGA,0.114
6,CCCTCCGA,-0.174
7,AGTGATTA,0.4
8,AATCTGAC,0.23
9,CATACTTA,0.137
10,GGCTCTCA,-0.0821
11,CGACTATC,0.359
12,ATAGAAAT,0.0519
13,ATCCCCAA,-0.139
14,AGGGTGGA,-0.00356
15,ACTTACGA,0.149
16,ATAACCTC,-0.267
17,CAGTGTAG,0.14
18,ATAGTATG,0.015
19,CACCCGCC,0.0896
20,ACCTCAAA,-0.116
21,CCCTGGCA,-0.272
22,TAGGAGGA,0.076
23,GAAAAACA,0.025
24,CGGGAAGC,-0.234
25,GGAACTAC,-0.143

row,Sequence,PBM E-score
1,CTGGCGCA,-0.219
2,GCTTTGCA,-0.0407
3,AAACCGGA,-0.0877
4,AACCTTTA,0.0157
5,CCGTCCTC,-0.281
6,CTTACGGC,-0.189
7,AACACCCC,-0.0593
8,CTTTTAGA,0.124
9,GTGCCCAC,-0.23
10,CCAAGTAA,0.043
11,GACACAGC,0.0285
12,CCCCCGCC,-0.196
13,GACGAGTA,0.178
14,AGAGTTAT,0.038
15,ACGTCTCT,-0.16
16,AACGCTAG,0.033
17,CCATCATC,-0.01
18,CGATGTCA,-0.0638
19,AGAACGAG,-0.0266
20,TCCAGGCA,0.0611
21,ATATCAAC,0.0316
22,ATATATAT,-0.111
23,GCTCACAA,0.0192
24,CTAGGCTC,-0.262
25,ACCGCGTG,-0.183

row,Sequence,PBM E-score
1,CGTCCAAC,-0.0203
2,GTCCCGAA,-0.134
3,AAGACACA,0.0498
4,ACCGGGTA,-0.259
5,AAATATCT,0.0638
6,CAGCATGA,0.267
7,AGTCGCAG,0.367
8,TCCTACAA,-0.0166
9,GGTTGGAA,-0.31
10,ACCAGGCT,-0.143
11,GGCCACTA,-0.212
12,CAACCCAA,-0.0252
13,GCCCCGTA,-0.213
14,TGCCCACA,-0.106
15,ATGAGTAG,0.308
16,CGAGACAG,0.0985
17,ACGTTGTC,-0.226
18,AATAAACT,-0.0363
19,GCCCTAGA,-0.316
20,CATGAGCG,0.0747
21,GACCTATC,-0.215
22,GAAAGTTA,0.137
23,AAGCACGC,-0.0139
24,ATGGTCCG,-0.102
25,CCCCCCGA,0.0138

row,Sequence,PBM E-score
1,ACATTTCG,-0.187
2,GTCCTGCA,0.0274
3,CAAGAAAC,0.0684
4,CGGTGTTA,0.152
5,ATGCGGGC,-0.206
6,ACATCAGT,0.094
7,ATGCACGC,-0.0794
8,CGTACAAC,-0.082
9,GATCGCCC,-0.217
10,ACTAGGTC,0.109
11,TCTTATCA,0.118
12,ATTACCCA,0.232
13,CGATTTAC,-0.156
14,AATGTTTA,0.12
15,CGACGGCC,-0.258
16,ACGAGCCG,0.0295
17,ACAAGCTA,-0.124
18,AGATTGGG,-0.00212
19,CCTTCACC,-0.171
20,TGAATTAA,0.14
21,ACGGGGTG,-0.106
22,AGGAATTC,-0.259
23,AAAACGCT,-0.156
24,CAACTATA,0.157
25,ACCGTCCA,-0.192

row,Sequence,PBM E-score
1,CACCGCGA,-0.106
2,CAACGGTG,-0.106
3,ATGCAGCA,-0.0338
4,AAAATTTC,-0.25
5,ACGTCAAT,-0.0768
6,AACGGTCG,-0.0839
7,CCTCGGCG,-0.139
8,AGGAGCCC,-0.156
9,AAGTCGAC,0.169
10,TGGGCTAA,-0.0729
11,AAAAAAAG,0.122
12,AAAACACA,0.0169
13,CCTCAGTC,0.326
14,AGGGCGCG,-0.182
15,AGCAATTC,-0.128
16,AAATGCTC,-0.141
17,CTTCTTAA,0.0509
18,CTTCAACA,0.11
19,GATGAAAA,-0.134
20,CGCCCGAA,-0.17
21,AAACTCAG,0.0269
22,CCACCATC,-0.033
23,ATTCCATA,-0.0291
24,GGAGAAAC,-0.0961
25,TCACCGGA,0.133

row,Sequence,PBM E-score
1,CCCCTTTC,-0.292
2,CCCCACAC,-0.211
3,CAAGAGAC,0.017
4,ATCGCTGA,0.0828
5,CGCGGCGC,-0.213
6,ACATAGAT,0.0632
7,ATGTGATG,-0.0936
8,ATCAAAGC,-0.0573
9,ACAGCTGT,0.0609
10,TAGCGAAA,0.0958
11,TAGCTACA,-0.0289
12,TCGGCCGA,0.094
13,AGCCCAGG,-0.285
14,TCCAGACA,-0.101
15,GACTTGTA,0.25
16,CCTCCTCA,-0.164
17,AACTGAGT,0.304
18,AATGGTAT,-0.148
19,AGACACGC,-0.105
20,GTAACTCA,0.277
21,GAGACGCC,-0.324
22,ACACTGCG,-0.273
23,CAAACGGA,-0.103
24,AAGGAGGG,-0.196
25,CTACCTCC,0.0844

row,Sequence,PBM E-score
1,AAAGTGCA,0.0468
2,AAAAAGGC,0.0801
3,ACCCATAC,0.0154
4,ACTGCCCT,-0.0556
5,AATCTCGA,0.0793
6,CGTGGCCC,-0.311
7,CGGATAAG,-0.0616
8,GGGGTGCA,-0.291
9,CGACTGCG,0.167
10,ACCATATA,0.0294
11,ACCAAATG,-0.0502
12,CGAAACAA,0.163
13,ACCCTAGT,0.0625
14,GTCATGAC,0.432
15,AAGAGCGA,-0.0506
16,GAAACTCA,0.223
17,GCAATCCA,0.131
18,ATTTCGAC,-0.0682
19,ACCGCTCA,-0.0304
